Out of some 410,000 compounds screened, about 6,400 (1.6%) were called active. The shares of active, inactive and inconclusive entries below differ from those in the screen. The call rests on the fitted dose curve; in most records, active means well fitted inhibition curve with a large enough effect; inconclusive means small, poorly fitted or top-dose-only effect; inactive means no such curve, though single readings can be large or run the other way. Potencies of inconclusive entries are left out as doubtful fits.
target: Glucagon-like peptide 1 receptor (Homo sapiens) (UniProt P43220); test: qHTS of GLP-1 Receptor Inverse Agonists (Inhibition Mode); conditions: HEK293 GLP-1R CRE-luciferase, luminescence, 24 h, GLP-1R form is constitutively active; activity change, negative = inhibition: at 38.3 µM (top of the series) unless noted; further: nearly all actives have a fitted effect of over 55% in size
Summary of the method: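 Inverse agonists were sought by their lowering of basal cAMP reporter luciferase output in HEK293 cells stably carrying constitutively active human GLP-1R, after 24 h compound treatment.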
On the % scale 0 is the no-effect control and ±100 the full control effect; potency means the concentration at half of the fitted maximal effect; tags describe the fitted curve by direction and shape.

Chain of UniProt P43220 (P43220 whole entry, looked up): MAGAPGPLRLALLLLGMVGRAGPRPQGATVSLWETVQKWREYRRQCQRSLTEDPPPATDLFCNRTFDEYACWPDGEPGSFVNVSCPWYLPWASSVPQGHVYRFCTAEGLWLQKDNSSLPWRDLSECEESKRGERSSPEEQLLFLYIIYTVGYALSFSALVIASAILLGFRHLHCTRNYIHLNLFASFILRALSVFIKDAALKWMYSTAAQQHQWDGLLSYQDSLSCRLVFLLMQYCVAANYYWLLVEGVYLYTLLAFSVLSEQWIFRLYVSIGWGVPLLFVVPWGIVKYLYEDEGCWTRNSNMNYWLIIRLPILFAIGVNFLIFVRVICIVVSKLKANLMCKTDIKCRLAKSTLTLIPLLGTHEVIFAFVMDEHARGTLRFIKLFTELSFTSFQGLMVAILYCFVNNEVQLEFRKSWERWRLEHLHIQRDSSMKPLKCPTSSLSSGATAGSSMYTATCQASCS

| Structure (SMILES) | Potency | activity change, negative = inhibition |
| --- | --- | --- |
| Oc1c(Cl)cc(Cl)cc1CNc1ccc(Br)cn1 | inconclusive [inhibitor, single point] | – |
| Cc1cccc(C(=O)NCCc2sc(-c3ccccc3)nc2C)c1 | inconclusive [inhibitor, single point] | – |
| O=C(O)C1=CC[C@@H](c2ccc(Cl)cc2)N(S(=O)(=O)c2ccc(Cl)cc2)[C@H]1c1ccc(Br)cc1 | inconclusive [inhibitor, partial curve, poor fit] | – |
| CCOC(=O)Cc1nnc(Nc2ccc(C)cc2C)c2ccccc12 | inconclusive [inhibitor, single point] | – |
| COc1ccccc1COCC(O)CNCC1(N2CCCCC2)CCCCC1 (stereo not given) | – | inactive: 9.39% |
| O=C(NCCc1c[nH]c2ccccc12)C(=O)NCC(c1ccco1)N1CCN(c2ccccc2F)CC1 (stereo not given) | inconclusive [inhibitor, full curve, poor fit] | – |
| Cc1ccc(C(=O)Nc2ccc(S(=O)(=O)N(Cc3ccccc3)c3ccccc3)cc2)cc1 | inconclusive [inhibitor, partial curve, poor fit] | – |
| Cc1cccc(N2C(=O)C(CC(=O)Nc3cccc(F)c3)N(CCc3ccncc3)C2=O)c1 (stereo not given) | inconclusive [inhibitor, full curve, poor fit] | – |
| Cc1ccc(NS(=O)(=O)c2ccc(OCC(=O)NCc3cccnc3)cc2)cc1 | – | inactive: -25.5% |
| Cc1ccc(-c2cnc3n2CCCCC3)cc1 | inconclusive [inhibitor, single point] | – |
| COc1ccccc1OCCNC(=O)Cc1ccc(Cl)c(Cl)c1 | – | inactive: -24.4% [at 7.66 µM] |
| Cc1cccc(C)c1NC(=O)C[N+](C)(C)CC(O)COc1cccc2ccccc12 (stereo not given) | – | inactive: -0.761% |
| COc1ccc(N(C)S(=O)(=O)c2cccc(C(=O)NC3CCCCC3C)c2)cc1 (stereo not given) | inconclusive [inhibitor, partial curve, poor fit] | – |
| CCOC(=O)c1ccc(NC(=O)CN(C)S(=O)(=O)c2ccc(Br)s2)cc1 | inconclusive [inhibitor, partial curve, poor fit] | – |
| COc1cc(/C=C2/C(=O)NN(c3ccc(Cl)cc3)C2=O)cc(OC)c1O | active: 3.98 µM | – |
| Cn1cccc1Cc1nnc(SCC(=O)Nc2cccc(F)c2)n1CCc1ccccc1 | inconclusive [inhibitor, single point] | – |
| CCOc1ccc(CN(C)C(=O)c2ccc(S(=O)(=O)N(C)c3ccccc3OC)cc2)cc1 | inconclusive [inhibitor, single point] | – |
| CN(C)c1ccc(C=c2c3ccccc3n3c2c2c([n+]3C)CCCC2)cc1 | inconclusive [inhibitor, partial curve, poor fit] | – |
| O=C(N/N=C/c1ccc(-c2cccc(C(F)(F)F)c2)o1)c1cccc(F)c1 | inconclusive [inhibitor, single point] | – |
| c1ccc(OCc2cc(-c3ccccc3)no2)cc1 | inconclusive [inhibitor, single point] | – |
| COc1cc(COCC(O)CN2CCN(CCN3C(=O)c4cccc5cccc(c45)C3=O)CC2)cc(OC)c1OC (stereo not given) | inconclusive [inhibitor, partial curve, poor fit] | – |
| N#Cc1ccc(CN2CCN(C(=O)c3cc(C4CC4)nn3-c3ccccc3)CC2)cc1 | inconclusive [inhibitor, single point] | – |

| Structure (SMILES) | Potency | activity change, negative = inhibition |
| --- | --- | --- |
| Cc1cc(C)cc(OCCCCCNCCO)c1 | inconclusive [inhibitor, single point] | – |
| COc1ccc(C)cc1NC(=O)C(OC(=O)C1=NNC(=O)CC1)c1ccccc1 (stereo not given) | inconclusive [inhibitor, single point] | – |
| O=C(Nc1nc2c(F)cccc2s1)c1ccc2c(c1)OCCO2 | inconclusive [inhibitor, single point] | – |
| COc1ccc(CC(C)Nc2cccc(SC)c2)cc1 (stereo not given) | inconclusive [inhibitor, partial curve, poor fit] | – |
| COc1cc(CN2CCC(Cc3ccccc3)CC2)c([N+](=O)[O-])cc1OC | inconclusive [inhibitor, single point] | – |
| CC(C)c1ccc(NC(=S)NN2C(C)CCCC2C)cc1 (stereo not given) | inconclusive [inhibitor, partial curve, poor fit] | – |
| COc1cc(C(=O)Oc2ccc(/C=N/NC(=O)c3ccncc3)cc2)cc(OC)c1OC | – | inactive: 17.3% |
| Cc1ccc(Sc2ccc(N3CCC(C(=O)Nc4ccc(Cl)cc4)CC3)nn2)cc1 | – | inactive: 10.3% |
| COc1cccc(CNC(=O)c2cc(COc3c(F)cccc3F)on2)c1 | inconclusive [inhibitor, single point] | – |
| Cc1[nH]c2ccccc2c1C(=O)C(=O)N1CCN(c2ccccc2F)CC1 | inconclusive [inhibitor, single point] | – |
| O=C(c1ccc(F)cc1)C1CCN(C(=O)c2ccccc2F)CC1 | inconclusive [inhibitor, single point] | – |
| CCc1nnc(N/N=C/c2ccc(-c3ccc([N+](=O)[O-])cc3)o2)n1N | – | inactive: 34.9% |
| CCc1c(C)nc2c(-c3ccccc3)c(C)nn2c1Nc1ccc(NC(C)=O)cc1 | active: 10 µM | – |
| O=C1OCCN1C(=O)[C@H]1[C@H](c2ccccc2)C(c2cccc(Cl)c2)=NN1c1ccc(Br)cc1 | – | inactive: 14.7% |
| CCc1ccccc1NC(=O)c1ccc(F)c(S(=O)(=O)N2CCN(c3ccccc3OC)CC2)c1 | inconclusive [inhibitor, partial curve] | – |
| COc1ccc(/C=C/c2onc(C)c2S(=O)(=O)N2CCC(C(=O)N3CCCCCC3)CC2)cc1 | active: 5.01 µM | – |
| Oc1c(N=Nc2ccccc2)sc2ccccc12 | – | inactive: -24.2% |
| CCCc1cc(C(=O)N2CCCC(CO)(CCCc3ccccc3)C2)n(C)n1 (stereo not given) | inconclusive [inhibitor, partial curve, poor fit] | – |
| CC(C)c1ccc(OCC(=O)NC(C)c2ccccc2)cc1 (stereo not given) | inconclusive [inhibitor, partial curve, poor fit] | – |
| COCCNC(=O)CN1C(=O)CCn2nc(-c3cn(C)c4ccccc34)cc21 | – | inactive: 1.62% |
| CC1Sc2ccc(S(=O)(=O)CCC(=O)NCc3ccccc3Cl)cc2NC1=O (stereo not given) | inconclusive [inhibitor, full curve] | – |
| CCc1cc(SC#N)cc(C)c1NC(=O)CCl | inconclusive [inhibitor, single point] | – |

| Structure (SMILES) | Potency | activity change, negative = inhibition |
| --- | --- | --- |
| NC(Cc1ccc(C(F)(F)F)cc1)c1csc(Nc2ccc(C(=O)NCc3ccco3)cn2)n1 (stereo not given) | inconclusive [inhibitor, full curve] | – |
| Cc1cc(C)cc(NC(=O)Cn2cc(C=O)c3ccccc32)c1 | inconclusive [inhibitor, partial curve, poor fit] | – |
| CCn1c(=O)c2cc(C(=O)NCCN(C)C)sc2c2ccccc21 | inconclusive [inhibitor, single point] | – |
| CN1CCN(S(=O)(=O)c2ccc(=O)[nH]c2)CC1 | – | inactive: 0% |
| CCOC(=O)C1C(C(=O)OC)=C(C2=CCCCC2)c2ccccc2N1S(=O)(=O)C(F)(F)F (stereo not given) | inconclusive [inhibitor, single point] | – |
| COc1cc(CN(C2CCCCC2C)S(=O)(=O)c2ccc(S(=O)(=O)NC3CC3)cc2)cc(OC)c1OC (stereo not given) | inconclusive [inhibitor, single point] | – |
| Cc1cc(S(=O)(=O)Nc2cc(C)c(O)c(C)c2)c(C)s1 | inconclusive [inhibitor, single point] | – |
| Cn1c(-c2ccc(C(C)(C)C)cc2)n[nH]c1=S | – | inactive: -27.7% |
| CCCC(c1nnnn1C1CCCC1)N1CCN(c2ccccc2F)CC1 (stereo not given) | inconclusive [inhibitor, single point] | – |
| O=C(Nc1ccc(Cl)cc1)C1=Cc2cc(Cl)ccc2OC1 | – | inactive: 0.295% |
| CCC(Cn1nnc2ccccc2c1=O)NC(=O)Nc1ccccc1Cl (stereo not given) | – | inactive: 9.79% |
| Cc1cc(C)c(C)c(S(=O)(=O)Nc2ccc(C(N)=O)cc2)c1C | inconclusive [inhibitor, single point] | – |
| O=C(NCc1ccccc1)C(c1cccc2ccccc12)n1c(=O)c(-c2ccco2)nc2ccccc21 (stereo not given) | inconclusive [inhibitor, single point] | – |
| COC(=O)C(=Cc1ccncc1)c1cccc2ccccc12 | inconclusive [inhibitor, partial curve, poor fit] | – |
| COc1cc(NCCCCCCN)c2ncccc2c1OC | inconclusive [inhibitor, single point] | – |
| Cc1ccc(CSCc2ccc(C(=O)NCCC(C)C)o2)cc1 | inconclusive [inhibitor, partial curve, poor fit] | – |
| O=C(c1cccc2c1-c1ccccc1C2)N1CCCCC1 | inconclusive [inhibitor, full curve, poor fit] | – |
| c1ccc(-n2nnc(-c3nccs3)n2)cc1 | – | inactive: 7.88% |
| CCOc1ccc(NC(=O)CN2CCN(c3ccc(F)cc3)CC2)cc1S(=O)(=O)N1CCCC1 | inconclusive [inhibitor, partial curve, poor fit] | – |
| Cc1cc(C)c(C(=O)c2ccc(C(=O)N3CCCCC3)cc2)c(C)c1 | inconclusive [inhibitor, partial curve, poor fit] | – |
| CC(=O)c1cccc(NC(=O)C2C(c3ccccc3)C2(Cl)Cl)c1 (stereo not given) | inconclusive [inhibitor, single point] | – |
